Experimental data as given in PubChem BioAssay AID485294 (National Center for Advancing Translational Sciences (NCATS), 2010).
In all, about 370,000 compounds went through this assay and about 150 (0.041%) were called active. The shares of active, inactive and inconclusive entries below differ from those in the screen. The call rests on the fitted dose curve; in most records, active means well fitted inhibition curve with a large enough effect; inconclusive means small, poorly fitted or top-dose-only effect; inactive means flat fitted curve, though single readings scatter. Potencies of inconclusive entries are left out as doubtful fits.

target: Beta-lactamase (Escherichia coli (strain K12)) (UniProt P00811); experiment: qHTS Inhibitors of AmpC Beta-Lactamase (assay with detergent); details: AmpC hydrolysis of nitrocefin, absorbance 480 nm, 0.01% Triton; series mostly up to 114 µM; further: nearly all actives have a fitted effect of over 25% in size
Procedure, shortened: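 20 mM phosphate pH 7.0 + 0.01% (detergent screen) or 0.0001% Triton X-100; 5.3 nM AmpC reagent; cpd preinc 15 min RT; nitrocefin (800 uM stock) to start; A480 q20 s × 4 min; Activity was normalised to no-enzyme and no-compound control wells.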
Potency means the concentration at half of the fitted maximal effect; tags describe the fitted curve by direction and shape.

Chain of UniProt P00811 (P00811 whole entry, looked up): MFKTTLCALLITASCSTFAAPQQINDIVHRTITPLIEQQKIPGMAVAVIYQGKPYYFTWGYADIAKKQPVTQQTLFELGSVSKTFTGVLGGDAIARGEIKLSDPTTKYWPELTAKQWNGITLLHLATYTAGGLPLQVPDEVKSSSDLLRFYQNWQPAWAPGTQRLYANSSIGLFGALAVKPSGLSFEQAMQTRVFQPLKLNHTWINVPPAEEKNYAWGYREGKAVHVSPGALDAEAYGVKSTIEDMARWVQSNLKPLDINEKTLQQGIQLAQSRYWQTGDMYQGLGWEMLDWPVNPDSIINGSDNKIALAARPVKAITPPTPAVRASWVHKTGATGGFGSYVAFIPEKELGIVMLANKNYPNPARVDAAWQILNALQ

Structure (SMILES) | Potency
CN(C)c1ccc(CNc2ccc3c(c2)ncn3C)cc1 | inconclusive [inhibitor, full curve, poor fit]
CCOc1ccccc1CNC(=O)C1CCN(c2nnc(-n3c(C)ccc3C)s2)CC1 | inactive
COc1ccc(-c2nnc(N)s2)cc1 | inconclusive [inhibitor, full curve]
O=c1c2cc(F)ccc2sn1-c1ccc(F)cc1 | inactive
Cc1cccc(C(=O)OC(C)C(=O)NC2CCCc3ccccc32)c1O (stereo unspecified) | inconclusive [inhibitor, full curve]
CCc1c(C)nc(N2CCN(c3ccc(F)cc3)CC2)[nH]c1=O | inconclusive [inhibitor, full curve, poor fit]
CCCCCCSc1ccc([C@H]2N[C@@](CC(C)C)(C(=O)OC)[C@H]3C(=O)N(C)C(=O)[C@@H]23)cc1OC | inconclusive [inhibitor, full curve, poor fit]
CC(C)C[C@@H](CO)N1CCN(Cc2ccc(Br)cc2)CCC1=O | inactive
CCCn1c(N)c(N2CCCCC2)c(=O)n(CC(=O)Nc2ccccc2C)c1=O | inconclusive [inhibitor, full curve, poor fit]
COc1ccccc1CC(=O)NNC(=O)c1cccs1 | inactive
Cc1ccc(NCc2nnc(SCCN3CCCCC3)n2CC2CCCO2)cc1Cl (stereo unspecified) | inconclusive [inhibitor, full curve, poor fit]
CC(C)(C)NCCCOc1ccc(Cl)cc1C(C)(C)C | inconclusive [inhibitor, partial curve]
CCOC(=O)N1CCN(C(=O)C2CCCN(Cc3nc(-c4ccc(Cl)cc4)oc3C)C2)CC1 (stereo unspecified) | inconclusive [inhibitor, full curve, poor fit]
Cc1cccc(OCCCC(=O)Nc2nccs2)c1 | inconclusive [inhibitor, full curve, poor fit]
S=c1[nH]nc(-c2ccccc2)n1/N=C/c1cccc(Br)c1 | inconclusive [inhibitor, partial curve, poor fit]
C=CCn1c(O)c(C(C)=NCCN2CCCCC2)c(=O)[nH]c1=O | inactive
COc1cccc(NC(=O)COc2ccccc2)c1 | inactive
CS(=O)(=O)N(CC(=O)O)Cc1cccc(CN(CC(=O)O)S(C)(=O)=O)c1 | inconclusive [inhibitor, full curve]
COC(=O)c1cn(C(=O)c2cc(OC)cc(OC)c2)c2ccccc12 | inconclusive [inhibitor, single point]
COCCn1c(=S)[nH]c2cc(C(=O)NCCc3ccc(OC)c(OC)c3)ccc2c1=O | inconclusive [inhibitor, full curve, poor fit]
CCCCN1CCc2nc(Nc3ccc(OC)cc3OC)ncc2C1 | inactive
CN(C)C(=O)Oc1ccc(OCc2n(C)c3ccccc3[n+]2C)cc1 | inconclusive [inhibitor, full curve]
S=C(NCc1ccccc1)NCc1cccc(Cl)c1 | inactive

Structure (SMILES) | Potency
CCOC(=O)N1CCN(S(=O)(=O)c2cc(OCC)ccc2OCC)CC1 | inconclusive [inhibitor, single point]
CC1(C)CC(=O)C=C(NCCc2ccccc2)C1 | inconclusive [inhibitor, partial curve, poor fit]
COC(=O)C1CN(C#N)N(c2ccc(Cl)cc2)C12c1ccccc1-c1ccccc12 (stereo unspecified) | inconclusive [inhibitor, partial curve, poor fit]
Cc1cc(=O)[nH]c2cc(Cl)ccc12 | inconclusive [inhibitor, full curve, poor fit]
Cc1cc(N2CCN(C(=O)Nc3ccccc3C#N)CC2)c2ccccc2n1 | inactive
CCN1CCN(CCCNC(=O)c2cc3sccc3n2CC)CC1 | inconclusive [inhibitor, partial curve]
CCOC(=O)c1ccc(NC(=O)C(C)N2C(=O)c3ccccc3C2=O)cc1 (stereo unspecified) | inconclusive [inhibitor, full curve, poor fit]
COc1ccc2[nH]c3c(c2c1)CCN(C(=O)c1cccc(Cl)c1)C3c1ccc(F)cc1 (stereo unspecified) | inactive
O=C(CC1NCCc2ccccc21)Nc1ccccc1 (stereo unspecified) | inactive
CCCNC(=O)C(Sc1ccccc1)c1ccccc1 (stereo unspecified) | inactive
Cc1ccc(CSc2ncc(Cl)c(C(=O)NCc3ccccc3)n2)cc1 | inactive
O=C(Nc1cnc2ccccc2c1)c1cccnc1 | inconclusive [inhibitor, partial curve, poor fit]
CCCCn1c(=S)[nH]c2ccc(N3CCOCC3)cc2c1=O | inactive
Cc1cccc(C(=O)Nc2sc3c(c2C#N)CCCCC3)c1 | inactive
Cc1cnc(C(=O)NC(Cc2ccccc2)c2ccccc2)cn1 (stereo unspecified) | inconclusive [inhibitor, full curve]
COCc1cc(C)nc(SCC[N+](C)(C)CC(=O)Nc2cccc(C)c2)c1C#N | inconclusive [inhibitor, single point]
Cc1ccccc1C[C@H](C(=O)O)N1C(=O)c2ccc(C(=O)O)cc2C1=O | inconclusive [inhibitor, full curve, poor fit]
CCOC(=O)c1ccc(N=c2sc(C(=O)OC)cc(=O)n2CCCN2CCOCC2)cc1 | inconclusive [inhibitor, full curve, poor fit]
O=C(C[n+]1cc(-c2ccccc2)n2c1CCC2)c1cccs1 | inactive
O=C(OCC(=O)N1CCN(C(=O)c2ccco2)CC1)c1cc(-c2ccc(Cl)c(Cl)c2Cl)nc2ccccc12 | inconclusive [inhibitor, full curve, poor fit]
COc1ccc(N(C)C(=O)CC2(CC(=O)O)CCCCC2)cc1 | inconclusive [inhibitor, full curve]
Brc1ccc(C=Nc2ccc3c(c2)OCCOCCOCCO3)s1 | inconclusive [inhibitor, full curve, poor fit]
Cc1c(C(=O)Nc2ccc3nc(N4CCOCC4)sc3c2)oc2ccccc12 | inconclusive [inhibitor, single point]
